The source gives no read counts; variants with many changes may rest on few reads.

Sequences and labels used below:
B1: CPEB3 Ribozyme (parent)
chain: UAACAGGGGGCCACAGCAGAAGCGUUCACGUCGCAGCCCCUGUCAGAUUCUGGUGAAUCUGCGAAUUCUGCUGUAUAUCUC

This data set covers variants of B1. The data set is described as follows: self-cleavage, relative activity (ratio to wild type); higher = more cleavage; in vitro, sequencing. The essentials: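 For each CPEB3 ribozyme variant, relative activity is its cleaved/total read fraction divided by the unmutated ribozyme's. Barcoded error-prone PCR libraries were transcribed by T7 RNA polymerase (5 hours, 37°C) and held in DNase I for 15 min before an EDTA stop, with cleavage occurring throughout. Template-switching reverse transcription and Illumina sequencing were used to read the RNAs. A 5-read minimum applied, and results are the mean of three batches.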
On to UAACAGGGGGCCACGGCAGAAGCGUACACGACGCAGCCCCCGUCAGAUUCUGGUGAAUCUGCGAAUUAUGCAGUAUAUCUC [A15G U26A U31A U41C C68A U72A], for which the self-cleavage worked out at 0.08.

For UAACAGGGGGCCACGGCAGAAGCGUUCACGACGCAGCCCCUGUCAGACUCUGGUGAAUCUGCGAAUUCUGCUGUAUAUCAC [A15G U31A U48C U80A], the self-cleavage came to 0.15.

In the case of UAACAGGGGGCCACGGCAGAAGCGUCCGCGUCGCAGCCCCUGUCAGAUUCUGGUGAAUCUGCGAAUUCUGCUGUAUGUCUC [A15G U26C A28G A77G], the self-cleavage was 0.11.

In the case of UAACAGGGGGCCACGGCAGAAGCGCUCACGUCGCAGCCCCUGUCAGAUUCUGGUGAAUCUGCGAAUUCUGCUGUAUACCUC [A15G U25C U78C], the self-cleavage came to 0.32.

Consider UAACAGGGGGCCACGGCAGAAGCGGUCACGUCGCAGCCCCUGUUAGAUUCUGGUGGAUCUGCGAAUUCUGCUGUAUAUCUC [A15G U25G C44U A56G], for which the self-cleavage stood at 0.26.

For UAACAGGGGGCCACGGCAGAAGCGUUCACGUCGCAGCCCCCGUCAGAUUCUGGUGGAUCUGCGGAUUCAGCUGUAUAUCUC [A15G U41C A56G A64G U69A], the self-cleavage is 0.21.

In the case of UAACAGGGGGCCACGGCAGAAGCGCUCACUUCGCAGCCCCCGUCAGAUUCUGGUGGAUCUGCGAAUUCUGCUGUAUAUCUC [A15G U25C G30U U41C A56G], the self-cleavage was 0.08.

Consider UAACAGGGGGCCACGGCAGAAGCGUUCACGCCGCAGCCCCCGUCAGAUUCUGGUGAAUCUGCGGACUCUGCUGUAUAUCUC [A15G U31C U41C A64G U66C], for which the self-cleavage came to 0.19.

For UAACAGGGGGCCACGGCAGAAGCGUUCACGUCGCAGCCCCAGUCAAAUUCUAGUGAAUCUGCGAAUUCUGCUGUAUAUCUC [A15G U41A G46A G52A], the self-cleavage was 0.06.

Regarding UAACAGGGGGCCACGGCAGAAGCGUCCUCGUCGCAGCCCCUGUCAGAUUCUGGUGAAUCUGCGGAUUCUGCUGUAUAUCUC [A15G U26C A28U A64G], the self-cleavage was 0.36.

UAACAGGGGGCCACGGCAGAAGCGUCCACGUCGCGGCCCCUGUCAGAUUCUGGUGAAUCUGCGAAUUCUGCUGUAUAUCUC [A15G U26C A35G]: the self-cleavage amounted to 0.35.

In the case of UAACAGGGGGCCACGGCAGAAGCGCUCACGACGCUGCCCCUGUCAGAUUCUGGUGGAUCUGCGAAUUCUGCUGUAUAUCUC [A15G U25C U31A A35U A56G], the self-cleavage was 0.07.

In the case of UAACAGGGGGCCACGGCAGAAGCGUACUCGUCGCAGCCCCUGUCAGAUACUGGUGUGUCUGCGAAUUCUGCUGUAUAUCUC [A15G U26A A28U U49A A56U A57G], the self-cleavage was found to be 0.14.

UAACAGGGGGCCACGGCAGAAGCGCUCACGUCGCAGCCCCUGUCAGAUUCUGGUGAAUCUGCGAAUUCUGCUGUACAUCUC [A15G U25C U76C]: the self-cleavage worked out at 0.09.

Regarding UAACAGGGGGCCACGGCAGAAGCGUCCACGUCGCAGCCCCUGUCUGAUUCUGGUGAAUCUGCGAAUUCUGCUGUAUAUCUC [A15G U26C A45U], the self-cleavage came to 0.29.

UAACAGGGGGCCACGGCAGAAGCGCUCACGUCGCAGCCCCUGUCAGAUUCUGGUGAAUCUGCGAACUCUGCUGUAUAUCUC [A15G U25C U66C]: the self-cleavage came to 0.29.

UAACAGGGGGCCACGGCAGAAGCGCUCACGUCGCAGCCCCUGUCAGAUUCAGGUGAAACUGCGAACUCUGCUGUAUAACUC [A15G U25C U51A U58A U66C U78A]: the self-cleavage came to 0.17.

As for UAACAGGGGGCCACGGCAGAAGCGUCCACGUCGCAGCCCCUGUCGGAUUCUGGUGAAUCUGCGAAUACUGCUGUAUAUCUC [A15G U26C A45G U67A], the self-cleavage worked out at 0.14.

With UAACAGGGGGCCACGGCAGAAGCGUUCACGCCGCAGCCCUCGUCAGAUUCUGGUGAAUCAGCGAAUUCUGCUGUAUAUCUC [A15G U31C C40U U41C U60A], the self-cleavage stood at 0.43.

For the variant UAACAGGGGGCCACGGCAGAAGCGUCCACGUCGCAGCCCCUGUCGGAUUCUGGUGUAUCUGCGAAAUCUGCUGUAUAUCUC [A15G U26C A45G A56U U66A], the self-cleavage worked out at 0.11.

Consider UAACAGGGGGCCACGGCAGAAGCGUUCACGUCGCAGCCCCAGUCAGAUUCCGGUGAAUCUGCGAAUUCUGCUGUAUAUCUC [A15G U41A U51C], for which the self-cleavage was 0.09.

UAACAGGGGGCCACGGCAGAAGCGCUCACGUCGCAGCCCCUGUCAGACUCUGGUGAAUCUGCGAGUUGUGCCGUAUAUCUC [A15G U25C U48C A65G C68G U72C]: the self-cleavage came out at 0.

As for UAACAGGGGGCCACGGCAGAAGCGUUCACGACGCAGCCCCUGUCAGAUUCUGGUGAAUCUGCGGAUUCUGCUGUAUAUCUC [A15G U31A A64G], the self-cleavage is 0.66.

For the variant UAACAGGGGGCCACGGCAGAAGCGCUCACGUCGCAGCCCCUGUCAGAUUCUGGUGAAUCUGAGAAUUCUGCUGUACAUCUC [A15G U25C C62A U76C], the self-cleavage was 0.27.

As to UAACAGGGGGCCACGGCAGAAGCGUUCACGACGCAGCCCCUGUCAGAUUCUGGUGAACCUGCGAAUUCUGGUAUGUAUCUC [A15G U31A U58C C71G G73A A75G], the self-cleavage was 0.08.

In the case of UAACAGGGGGCCACGGCAGAAGCGUUCACGUCGCAGCCCCCGUCGGAUUCUGGUGAAUCUGCGAAUUCUGCUGUAUAUCUC [A15G U41C A45G], the self-cleavage came to 0.42.

Regarding UAACAGGGGGCCACGGCAGAAGCGUUCACGGCGCAGCCCCUGCCAGAUUCUGGUGAAUCUGCGAAUUCUGCUGCAUAUCUC [A15G U31G U43C U74C], the self-cleavage was determined as 0.73.

With UAACAGGGGGCCACGGCAGAAGCGUCCACGUCGCUGCCCCUGUCAGAUUCUGGUGAAUCUGCGUAUUCUGCCGUAUACCUC [A15G U26C A35U A64U U72C U78C], the self-cleavage is 0.12.

As for UAACAGGGGGCCACGGCAGAAGCGUUCACGUCGCAGCCCCAGUCAGAUUCUGGUGAAUCUGCGAAUCCUGCUGUAUAUCUC [A15G U41A U67C], the self-cleavage was found to be 0.19.

In the case of UAACAGGGGGCCACGGCAGAAGCGCUCACGCCGCAGCCCCUGUCAGAUUCUGGUGAGUCUGCGAAUUCUGCUGUAUACCUC [A15G U25C U31C A57G U78C], the self-cleavage was found to be 0.17.

For UAACAGGGGGCCACGGCAGAAGCGUCCACGUCGCAGCCCCUGUCAGAUUCUCGUGAAUCUGCGAAUCCUGCUGAAUAUCUC [A15G U26C G52C U67C U74A], the self-cleavage was 0.11.

Consider UAACAGGGGGCCACGGCAGAAGCGUCCACGUCGCAGCCCCUGUCAGAUUCUCGUGAACCCGCGAAUCCUGCAGUAUAUCUC [A15G U26C G52C U58C U60C U67C U72A], for which the self-cleavage turned out to be 0.17.

As to UAACAGGGGGCCACGGCAGAAGCGUUCACGUCGCAGCCCCCGUCAAAUCCUGGUGAAUCUGCGAAUCCUGCUGUAUAUCUC [A15G U41C G46A U49C U67C], the self-cleavage was found to be 0.08.

Consider UAACAGGGGGCCACGGCAGAAGCGUCCACGUCGCAGCCCCUGUCAGAUCCCGGUGAAUCUGCGAAUUCUGCUGUAUAUCUC [A15G U26C U49C U51C], for which the self-cleavage worked out at 0.12.

The values above are taken from the RNAGym collection of RNA variant scans (doi:10.1093/nar/gkz1192).
